We go through 28 molecules from the supplement of paper PMC4604168 (melanoma cell lines).

Molecules are shown by their SMILES. This is one part of the list. Repeats are few or missing, and single values can be far off.

Holding throughout (assay): cell count relative to DMSO control; melanoma cells; higher = more viable cells
Common to all, as to conditions: library dose: standard library concentration; 72 h

Test [1] deals with 501Mel.
Test [2] concerns A101D.
The test system of test [3] is A2058.
Test [4] deals with A375.
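Also: cells treated in 1,536-well plates, then fixed and DAPI-stained, with nuclei counted from automated high-throughput microscope images.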

With `COc1cc2c(Oc3ccc4[nH]c(C)cc4c3F)ncnc2cc1OCCCN1CCCC1` [cediranib] + COC(=O)c1sccc1S(=O)(=O)Nc1ccc(Nc2ccccc2)cc1OC [GSK0660] (first compound 2 µM, partner dose 5 µM), the cell count is 72.3% in test [1], 112% in test [2], 93.8% in test [3] and 97.9% in test [4].
In the same order, the values of `Cc1ccc(NC(=O)c2cccc(N(C)C)c2)cc1NC(=O)c1ccc(O)cc1` + O=C1NC(=O)/C(=C/c2ccc(-c3ccc(F)cc3O)o2)S1 [AS252424] (first compound 10 µM, partner dose 5 µM) are 70.3%, 94.6%, 102% and 147%.
In the same order, the values of `NC(=O)c1ccc(N(C(N)=O)c2c(F)cccc2F)nc1-c1ccc(F)cc1F` + COc1ccc2c(c1)CCC1C2CCC2(C)C(NCCCCCCN3C(=O)C=CC3=O)CCC12 [U73122] (first compound 2 µM, partner dose 2 µM) are 89.3%, 67.6%, 58.6% and 68%.
In the same order, the values of `CCc1ccc(CCOc2ccc(CC3SC(=O)NC3=O)cc2)nc1` (stereo unspecified) [pioglitazone] + N#Cc1c(O)c2c(-c3ccc(-c4ccccc4O)cc3)csc2[nH]c1=O [A769662] (first compound 10 µM, partner dose 10 µM) are 133%, 105%, 97% and 133%.
`CC(C)(C)c1cnc(CSc2cnc(NC(=O)C3CCNCC3)s2)o1` + COc1ccc2c(c1)CCC1C2CCC2(C)C(NCCCCCCN3C(=O)C=CC3=O)CCC12 [U73122] (first compound 0.05 µM, partner dose 2 µM): the cell count in test [1] was 78.2%; in test [2] it was 85.8%; in test [3], 76.1%; in test [4] it was 78.9%.
As for `CCc1ccc(CCOc2ccc(CC3SC(=O)NC3=O)cc2)nc1` (stereo unspecified) [pioglitazone] + Cn1cc(/C=C2\C(=O)Nc3cccnc32)c2ccccc21 [GW441756] (first compound 10 µM, partner dose 2 µM), the cell count in test [1] was determined as 55.2%; in test [2] it was 103%; in test [3] it was 106%; in test [4], 173%.
In the same order, the values of `Cc1ccc(NC(=O)c2cccc(N(C)C)c2)cc1NC(=O)c1ccc(O)cc1` + N#Cc1c(O)c2c(-c3ccc(-c4ccccc4O)cc3)csc2[nH]c1=O [A769662] (first compound 10 µM, partner dose 10 µM) are 60.2%, 96.7%, 93.6% and 126%.
For the molecule `CCCCCCCCc1ccc(CCC(N)(CO)CO)cc1` [fingolimod] + COc1ccc2c(c1)CCC1C2CCC2(C)C(NCCCCCCN3C(=O)C=CC3=O)CCC12 [U73122] (first compound 10 µM, partner dose 2 µM), the cell count came to 1.68% in test [1], 1.65% in test [2], 6.41% in test [3] and 69.7% in test [4].
In the same order, the values of `CCCCCCCCc1ccc(CCC(N)(CO)CO)cc1` [fingolimod] + COc1ccc(-c2ccc3c(N4CCOCC4)nc(N4C[C@@H](C)O[C@@H](C)C4)nc3n2)cc1CO [KU0063794] (first compound 10 µM, partner dose 0.1 µM) are 1.15%, 1.79%, 2.76% and 24.7%.
In the same order, the values of `Cc1ccc(NC(=O)c2cccc(N(C)C)c2)cc1NC(=O)c1ccc(O)cc1` + CCCCCCCCCCCC1=C(O)C(=O)C=C(O)C1=O [Embelin] (first compound 10 µM, partner dose 6 µM) are 68.2%, 80.6%, 91.1% and 128%.
Regarding `NC(=O)c1ccc(N(C(N)=O)c2c(F)cccc2F)nc1-c1ccc(F)cc1F` + C[C@]1(O)C[C@@H](c2nc(-c3ccc4ccc(-c5ccccc5)nc4c3)c3c(N)nccn32)C1 [OSI906] (first compound 2 µM, partner dose 2 µM), the cell count stood at 95.4% in test [2], 77.6% in test [3] and 78.5% in test [4].
For the molecule `NC(=O)c1ccc(N(C(N)=O)c2c(F)cccc2F)nc1-c1ccc(F)cc1F` + C=CCn1c(=O)c2cnc(Nc3ccc(N4CCN(C)CC4)cc3)nc2n1-c1cccc(C(C)(C)O)n1 [MK1775] (first compound 2 µM, partner dose 0.1 µM), the cell count stood at 56.8% in test [2], 101% in test [3] and 54.2% in test [4].
`COc1cc2c(Oc3ccc4[nH]c(C)cc4c3F)ncnc2cc1OCCCN1CCCC1` [cediranib] + O=S(=O)(c1ccccc1)N(CC(F)(F)F)c1ccc(C(O)(C(F)(F)F)C(F)(F)F)cc1 [T0901317] (first compound 2 µM, partner dose 7 µM): the cell count was determined as 63.1% in test [1], 83% in test [2], 90.2% in test [3] and 128% in test [4].
On to `CCCCCCCCc1ccc(CCC(N)(CO)CO)cc1` [fingolimod] + COCC[n+]1c2c(n(Cc3cnccn3)c1C)C(=O)c1ccccc1C2=O [YM155] (first compound 10 µM, partner dose 0.002 µM), for which the cell count was 3.41% in test [2], 5.53% in test [3] and 80.4% in test [4].
For `Cc1ccc(NC(=O)c2cccc(N(C)C)c2)cc1NC(=O)c1ccc(O)cc1` + Oc1cc(-c2nc(-c3ccccc3)[nH]c2-c2ccncc2)ccc1Cl [L779450] (first compound 10 µM, partner dose 1 µM), the figures for the cell count in test [2], in test [3] and in test [4] were 71.1%, 85.9% and 81.3%, respectively.
In the same order, the values of `Cc1ccc(NC(=O)c2cccc(N(C)C)c2)cc1NC(=O)c1ccc(O)cc1` + Cc1cc(N2CCOCC2)cc2[nH]c(-c3c(NC[C@@H](O)c4cccc(Cl)c4)cc[nH]c3=O)nc12 [BMS536924] (first compound 10 µM, partner dose 1 µM) are 96.9%, 94.2% and 121%.
Take `CCCCCCCCc1ccc(CCC(N)(CO)CO)cc1` [fingolimod] + C[C@@H](Oc1cc(-c2cnn(C3CCNCC3)c2)cnc1N)c1c(Cl)ccc(F)c1Cl [Crizotinib] (first compound 10 µM, partner dose 1 µM): the cell count in test [2] turned out to be 5.04%; in test [3], 9.11%; in test [4] it was 33.4%.
In the same order, the values of `NC(=O)c1ccc(N(C(N)=O)c2c(F)cccc2F)nc1-c1ccc(F)cc1F` + Cn1c(=O)n(-c2ccc(C(C)(C)C#N)cc2)c2c3cc(-c4cnc5ccccc5c4)ccc3ncc21 [NVP-BEZ235] (first compound 2 µM, partner dose 0.02 µM) are 62.2%, 60.2% and 113%.
In the same order, the values of `NC(=O)c1ccc(N(C(N)=O)c2c(F)cccc2F)nc1-c1ccc(F)cc1F` + Oc1nc(-c2ccc(C(F)(F)F)cc2)nc2c1CSCC2 [XAV939] (first compound 2 µM, partner dose 10 µM) are 102%, 90.1% and 105%.
In the case of `CN(NC(=O)CC(=O)NN(C)C(=S)c1ccccc1)C(=S)c1ccccc1` + O=C(Nc1ccccc1)c1cc([N+](=O)[O-])ccc1Cl [GW9662] (first compound 0.03 µM, partner dose 10 µM), the cell count came out at 2.12% in test [1], 51% in test [2], 10.5% in test [3] and 98% in test [4].
In the same order, the values of `Cc1ccc(NC(=O)c2cccc(N(C)C)c2)cc1NC(=O)c1ccc(O)cc1` + Cc1cc([N+](=O)[O-])ccc1NS(=O)(=O)c1cc(Cl)ccc1Cl [FH535] (first compound 10 µM, partner dose 5 µM) are 77.2%, 60.7%, 73.6% and 72.7%.
Turning to `NC(=O)c1ccc(N(C(N)=O)c2c(F)cccc2F)nc1-c1ccc(F)cc1F` + CN(NC(=O)CC(=O)NN(C)C(=S)c1ccccc1)C(=S)c1ccccc1 [STA4783] (first compound 2 µM, partner dose 0.03 µM), the cell count in test [2] came out at 21.7%; in test [3] it was 18.2%; in test [4], 92.4%.
In the case of `CN(NC(=O)CC(=O)NN(C)C(=S)c1ccccc1)C(=S)c1ccccc1` + COc1cc2ncnc(Nc3ccc(Oc4ccccc4)cc3)c2cc1OC [SrcI1] (first compound 0.03 µM, partner dose 10 µM), the cell count in test [1] was 6.94%; in test [2], 29.4%; in test [3], 4.3%; in test [4], 164%.
In the same order, the values of `CN(NC(=O)CC(=O)NN(C)C(=S)c1ccccc1)C(=S)c1ccccc1` + COc1ccc(COc2ccc(Cc3cnc(N)nc3N)cc2OC)cc1 [GW2580] (first compound 0.03 µM, partner dose 5 µM) are 26.1%, 56.9%, 8.83% and 111%.
For the molecule `NC(=O)c1ccc(N(C(N)=O)c2c(F)cccc2F)nc1-c1ccc(F)cc1F` + COc1cc2c(Oc3ccc4[nH]c(C)cc4c3F)ncnc2cc1OCCCN1CCCC1 [cediranib] (first compound 2 µM, partner dose 2 µM), the cell count in test [2] stood at 99.3%; in test [3] it was 93.3%; in test [4], 132%.
With `COc1cc2c(Oc3ccc4[nH]c(C)cc4c3F)ncnc2cc1OCCCN1CCCC1` [cediranib] + CCCCCCCCCCCC1=C(O)C(=O)C=C(O)C1=O [Embelin] (first compound 2 µM, partner dose 6 µM), the cell count in test [1] is 88.5%; in test [2] it was 95.5%; in test [3], 104%; in test [4], 105%.
In the same order, the values of `Cc1ccc(NC(=O)c2cccc(N(C)C)c2)cc1NC(=O)c1ccc(O)cc1` + O=S(=O)(c1ccccc1)N(CC(F)(F)F)c1ccc(C(O)(C(F)(F)F)C(F)(F)F)cc1 [T0901317] (first compound 10 µM, partner dose 7 µM) are 60.5%, 79.7%, 86.3% and 78.7%.
As to `CC(C)(C)c1cnc(CSc2cnc(NC(=O)C3CCNCC3)s2)o1` + CN(C)S(=O)(=O)c1ccc2c(c1)/C(=C/c1cc3c([nH]1)CCCC3)C(=O)N2 [SU6656] (first compound 0.05 µM, partner dose 2 µM), the cell count in test [2] was 67%; in test [3] it was 77.2%; in test [4], 126%.
